# ± gives the standard deviation of the averaged measurements. Some of the results follow.
# Test system: PfAP2-EXP AP2 domain (GST-tagged)
# Test: gcPBM binding intensity (ln(normalized median fluorescence intensity)); higher = stronger DNA binding
# In short: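 Plasmodium falciparum DNA-binding domains carrying a GST tag were expressed in E. coli and applied for 1 h, at about 25 μg on average, to an Agilent 4 × 180k array. The array held primer-extended double-stranded 36-bp intergenic genomic probes together with negative controls, and binding took place in 1× PBS with 1% milk, 0.2 mg/ml BSA, 0.5% salmon testes DNA and 0.03% Triton X-100. An Alexa488 anti-GST antibody detected bound protein, and the array was scanned at 488 nm. Binding intensity is taken as the highest Masliner-normalised natural-log median intensity across replicate spots of either probe orientation.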
row,Sequence,gcPBM binding intensity (ln)
1,AAAATAATCACATATTGTACAAAAAAATTTATTAAA [XGTACX_site3239],8.44 ± 0.48
2,TTTAATTATAAAACGTGTACATAATTATAATTACAT [XGTACX_site2206],8.52 ± 0.31
3,AAAAAAAAAAAAAAATGTACCCATATATAAATATAT [XGTACX_site4061],8.28 ± 0.14
4,AAAAAATGGATGATCACACACTTCATAAAAATTGCA [CACACA_site5256],8.46 ± 0.49
5,ATTATGTACAAAATGGTGCAATATTATACATATATA [GTGCAC_site9468],8.75 ± 0.042
6,AAAAATAGTATAAGTAGTACAACTGAAAAGTTATGT [XGTACX_site7488],8.85 ± 0.27
7,ATCATTTGCTCACGCACACACACATAAAAAGAAAAA [CACACA_site4349],8.69 ± 0.42
8,ATAAAACGAAGATGTTGTACGTACAAATAAATGAAT [XGTACX_site2472],9.35 ± 0.41
9,ATAACTTTTTAAAAGACACACATAAGAAAAACAAAA [CACACA_site723],8.94 ± 0.47
10,TATCTTATAAACTCTGCACACATAATATATTAAATG [CACACA_site8587],8.61 ± 0.33
11,TATACGCAGAAACACACACACATACACCCACATACA [CACACA_site1723],8.65 ± 0.54
12,CAAAAGTAAGCACGCACACACAACATGAAATAAACT [CACACA_site6223],8.9 ± 0.53
13,TTAATTAATTTTTCAGTGCAAATAAAAAATATTTAA,8.2 ± 0.33
14,AAAAATTTTAATTAGGAACACACATATATATATATA [CACACA_site9016],10.1 ± 0.27
15,AACGTTCATAATTATTGTACCCTCATTTTATTTTTT [XGTACX_site503],8.85 ± 0.71
16,TATATTAGAAAGGATACACACATATATATATATCTA [CACACA_site570],8.29 ± 0.38
17,ATATATATGTATGTATGTACACACAAAAAATGGAAT [XGTACX_site7879],9.16 ± 0.38
18,ATATGCTATTATATATGTACACACCAATTTATTTAT [XGTACX_site8364],8.96 ± 0.38
19,AAAAAAAAAAAAAAAACACACATTTTAAGAAAAAAA [CACACA_site2926],8.525 ± 0.049
20,TACAAAATAAATGGAACATGCAAAAAAATTGATTAA [TGCATGCA_site790],8.95 ± 0.37
21,ATTATATTCTTTACTACCAATTAGTAGAAAATAAAA [CACACA_negctrl_site1096],8.3 ± 0.49
22,ATATATATATGTTTGTGTACTTATGATATCATATAA [XGTACX_site3276],9.66 ± 0.099
23,TTTTAAAAAATATAATAATATAAATATGTTTTATAC [CACACA_negctrl_site643],8.08 ± 0.28

row,Sequence,gcPBM binding intensity (ln)
1,TAAATAAATAAAAATAGTACATAATTATTATTATTA [XGTACX_site4981],8.19 ± 0.26
2,AATATATATATATATATTTTTGTTAGAATATGGAAT [GTGCAC_negctrl_site434],8.4 ± 0.36
3,TTAAAATAGCTAGTTTGTACATAAAATATATTACTT [XGTACX_site202],8.43 ± 0.45
4,CTTAATAAGAATAAATGTACAAGGGATAAAAAATTT [XGTACX_site3213],8.74 ± 0.49
5,ATAGAATATTAATAATTAAAAATAAAATAAAATAAA [CACACA_negctrl_site1810],8.49 ± 0.35
6,TATTTAATTATTTGTAGTACGATTAATATTTAATGA [XGTACX_site3553],8.19 ± 0.35
7,AAAAAGAAAAATTGCACACACTTATAAAAATATACG [CACACA_site6074],8.57 ± 0.3
8,TTTTACAATGAAATATGTACTTAAATGTCCAAATTC [XGTACX_site781],8.17 ± 0.31
9,TATATAAGAATATATACACACATATATGTATATATA [CACACA_site2178],8.16 ± 0.4
10,TTAACCATTAATTCTCTACACACTTTTATTTTATTT [CACACA_site8522],8.66 ± 0.54
11,GTTAACAAATAATGCACACAAATGGATAAAATTATA [CACACA_site3725],8.77 ± 0.27
12,AAGAACAAATATGAGGTGCAACACAATATATTATTA [GTGCAC_site9965],8.76 ± 0.26
13,AATATAATTTTTTATTGTACAAAAAAATTATTTAAT [XGTACX_site3248],8.47 ± 0.53
14,TATTATTAATATGTATGGTTGTAATCTGTGTCTCCT [TGCATGCA_negctrl_site190],8.77 ± 0.3
15,CATTTTGTAAGATATGCACACATGGATCATATTTTA [CACACA_site423],8.38 ± 0.28
16,TTTTTTTTTATCAAATGTACATATATATAATAATAA [XGTACX_site3941],8.3 ± 0.4
17,AATAAGTATACACATACACACACACCCAAAAAAAAA [CACACA_site8034],8.62 ± 0.6
18,GTGTAAATATAATTAGTTTCACAAAACAAATATTTA [CACACA_negctrl_site717],8.12 ± 0.4
19,ATGGGTATTAAGTGTACACATATAGTGTATTTTGTT [CACACA_site4452],8.61 ± 0.29
20,AGGCACAAAATTAAATGTACATATATATATATATAT [XGTACX_site3323],10.1 ± 0.48
21,TATATATATGAGTATACACACCTGATAAAGGTATAT [CACACA_site5462],8.53 ± 0.39
22,GATTACTAGAAATGCACACACTGATAAAATAAGGAA [CACACA_site6131],8.88 ± 0.37
23,TTAAACTTGAAACACACACACACACCGATATAAAAA [CACACA_site4578],8.71 ± 0.53

row,Sequence,gcPBM binding intensity (ln)
1,AGATTGGAACATTAAAGTACTTACTTTTTTTTTTTT [XGTACX_site8017],8.16 ± 0.4
2,ATAAAAATATTGTCTAGTACATATTTATAATAAAAA [XGTACX_site7523],8.18 ± 0.35
3,AGAAATATATCTATTTGTCCGTATATTCATATTTAT [XGTACX_site8427],8.61 ± 0.4
4,TATATACTCAAACACACACACACATACACAGACATA [CACACA_site5025],8.77 ± 0.57
5,ATTTTTTTTTTTTTTTTTTTTGCACCATAAAATAAT [CACACA_negctrl_site1324],8.42 ± 0.38
6,TATATATATATGTGTACACATTTGTCAGATTATATA [CACACA_site4813],9.89 ± 0.22
7,ATTTTGACATTATATAGTACATATAATTTACATTTA [XGTACX_site3024],8.56 ± 0.45
8,TATATATTCTTTTAATGTACATATTGTATTATATCC [XGTACX_site4501],8.72 ± 0.41
9,ATATATTTAAACAAAAGTACAAATCATAAATTCAAG [XGTACX_site3633],8.38 ± 0.26
10,ATTTTTTAAAAAGTAACACACACTCTTATATATAAT [CACACA_site9206],8.51 ± 0.48
11,TCTTTATCTTCTTATACACACATTTATTAAAAAAAA [CACACA_site445],8.87 ± 0.56
12,TGACATAAAAAATATACACACTATAATATTTATACT [CACACA_site6776],8.26 ± 0.4
13,AAAAGAAATTTGGGCACATGCGAATTTATAATTTAT [TGCATGCA_site960],8.61 ± 0.47
14,TAAAGTATTACAACCACACACACACCGATATATTAT [CACACA_site9382],8.68 ± 0.51
15,TAATTTAATAATTAGACACACATGTCTAAAATAAAA [CACACA_site2527],8 ± 0.35
16,TATATATATATATATACATGCATATTTTTTATTTTT [TGCATGCA_site464],10.3 ± 0.31
17,TATATTTATCTGATAACACACATAAATTAGACATTT [CACACA_site6887],8.26 ± 0.35
18,TGTCTTATATATATTACACACTATATGAAAAAATAT [CACACA_site1487],8.47 ± 0.36
19,TTTTTTATATATATTTGTACATATTGCATGTTCCCT [XGTACX_site7143],9.15 ± 0.38
20,AATATGGTTATATATATATATATATATATATATATT [GTGCAC_negctrl_site566],8.945 ± 0.078
21,CCTATCCATACATATACACACATATCTATTTATATA [CACACA_site1669],8.76 ± 0.41
22,TTTGAAATAAATAATGCACACTCTACATATATACGT [CACACA_site2244],8.655 ± 0.021
23,ATTGTTTTATATAGAACACACATAAAAATCTATATG [CACACA_site6681],8.41 ± 0.45

row,Sequence,gcPBM binding intensity (ln)
1,TTATTATATAAAATAAATAACAAAAAAAATAAAATA [GTGCAC_negctrl_site548],8.45 ± 0.43
2,CAACATTTATATTTTACACACATCATTTAAGCGCTT [CACACA_site992],8.54 ± 0.53
3,AAATAAAATACAAGTTGTACTATAAGCTTTTTATAT [XGTACX_site8021],8.48 ± 0.42
4,AATATATAAGTGTTGTGTACTAAAGTATTTTCCTAT [XGTACX_site1622],8.59 ± 0.38
5,AAAAAAAAAAGACACACACACATATTTATTTATATA [CACACA_site6484],8.35 ± 0.64
6,AGTAGATATAAAAGGAGTACACATATATATATAAAT [XGTACX_site4375],8.89 ± 0.34
7,TTTAATTAAATATGTATATATATTCATGTATGTATA [GTGCAC_negctrl_site14],8.31 ± 0.4
8,CATATACAGAAACACACACACACATAAATAAATATA [CACACA_site1343],8.85 ± 0.56
9,TGTTTTTGTGATCATATGAAAAAATTACCTACAAGG [CACACA_negctrl_site279],8.62 ± 0.39
10,ATAGTTTTACACATTTGTACATAATTTACAACAAAA [XGTACX_site25],8.69 ± 0.36
11,ATAGTATCTGGTAGCTGTACGAGTCGTATAGTGCAG [XGTACX_site2542],8.85 ± 0.35
12,TTTCCGTATAATTTTGCACACGAATATAAATTTGAT [CACACA_site137],8.82 ± 0.35
13,AAAAAATATTATATATGTACATAATATTTTTTTTTT [XGTACX_site5909],8.21 ± 0.33
14,ATATATATATATTCCACACACACACTAATAAAAAAA [CACACA_site9214],9.94 ± 0.16
15,TTTAATCAAATTAAAAGTACAGAATTGTTCATGTAG [XGTACX_site1229],8.46 ± 0.35
16,TATGCTTTTACAATGTGTACTTATATTTTTCACAGG [XGTACX_site6201],8.81 ± 0.4
17,ATATATCATCATGTATGTACACACATACATATATTA [XGTACX_site2814],8.64 ± 0.38
18,TAATTTTCAATAATTTGTACATAATTTTTATAAATT [XGTACX_site8133],8.31 ± 0.28
19,TATATAAATTAACCAGTGCATTATTTGGAAATTATT,8.57 ± 0.057
20,AACCATAAAAAGTGTACACATATAAAAAATATGGAA [CACACA_site4199],9.12 ± 0.39

# — the supplement of paper PMC11417369
